# Reference: paper PMC9765265
# Chains of the proteins cited; added tags and fusions are not shown.
# UniProt P13164: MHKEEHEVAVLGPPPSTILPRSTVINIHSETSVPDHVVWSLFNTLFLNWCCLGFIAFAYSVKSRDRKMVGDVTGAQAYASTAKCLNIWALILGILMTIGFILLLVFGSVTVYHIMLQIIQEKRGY
# UniProt Q01629: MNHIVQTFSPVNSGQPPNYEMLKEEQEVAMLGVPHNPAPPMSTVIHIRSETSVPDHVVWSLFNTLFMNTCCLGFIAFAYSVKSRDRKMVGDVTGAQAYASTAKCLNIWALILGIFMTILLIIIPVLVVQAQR
# UniProt Q01628: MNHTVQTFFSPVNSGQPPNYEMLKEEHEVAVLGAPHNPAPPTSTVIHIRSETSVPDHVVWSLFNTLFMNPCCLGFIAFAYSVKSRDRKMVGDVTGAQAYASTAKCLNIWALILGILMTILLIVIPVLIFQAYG
# UniProt Q9CQW9: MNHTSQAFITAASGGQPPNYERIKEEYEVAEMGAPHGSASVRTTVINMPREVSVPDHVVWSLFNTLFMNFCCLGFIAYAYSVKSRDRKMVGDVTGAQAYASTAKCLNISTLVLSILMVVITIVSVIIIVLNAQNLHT
# No constants are given. Whether binding was seen depends on the method and setting. For part of these data: In cells and extracts the contact can be indirect. Some results given as binding are weak or reduced against the parent protein; the word gives no strength. For part of these data: Tags and fused reporters may be left off the sequences shown.
# T1: S-tag-mABHD16A (mouse) (UniProt Q9Z1Q2)
# T1 sequence: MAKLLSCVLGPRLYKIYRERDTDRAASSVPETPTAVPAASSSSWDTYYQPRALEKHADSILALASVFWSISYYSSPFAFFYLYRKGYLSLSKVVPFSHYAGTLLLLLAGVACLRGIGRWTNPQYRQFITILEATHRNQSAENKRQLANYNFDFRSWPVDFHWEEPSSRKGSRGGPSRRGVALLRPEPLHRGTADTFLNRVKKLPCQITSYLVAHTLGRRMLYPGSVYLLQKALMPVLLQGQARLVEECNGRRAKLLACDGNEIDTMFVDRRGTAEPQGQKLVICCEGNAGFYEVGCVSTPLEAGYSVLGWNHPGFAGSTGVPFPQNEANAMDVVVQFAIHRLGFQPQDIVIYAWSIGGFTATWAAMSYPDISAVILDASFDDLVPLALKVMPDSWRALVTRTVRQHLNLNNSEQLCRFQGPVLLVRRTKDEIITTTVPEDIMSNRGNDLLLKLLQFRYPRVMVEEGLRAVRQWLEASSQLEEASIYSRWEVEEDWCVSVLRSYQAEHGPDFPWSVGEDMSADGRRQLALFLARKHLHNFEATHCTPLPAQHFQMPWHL
# T2: mABHD16A-VN (mouse) (UniProt Q9Z1Q2)
# T2 sequence: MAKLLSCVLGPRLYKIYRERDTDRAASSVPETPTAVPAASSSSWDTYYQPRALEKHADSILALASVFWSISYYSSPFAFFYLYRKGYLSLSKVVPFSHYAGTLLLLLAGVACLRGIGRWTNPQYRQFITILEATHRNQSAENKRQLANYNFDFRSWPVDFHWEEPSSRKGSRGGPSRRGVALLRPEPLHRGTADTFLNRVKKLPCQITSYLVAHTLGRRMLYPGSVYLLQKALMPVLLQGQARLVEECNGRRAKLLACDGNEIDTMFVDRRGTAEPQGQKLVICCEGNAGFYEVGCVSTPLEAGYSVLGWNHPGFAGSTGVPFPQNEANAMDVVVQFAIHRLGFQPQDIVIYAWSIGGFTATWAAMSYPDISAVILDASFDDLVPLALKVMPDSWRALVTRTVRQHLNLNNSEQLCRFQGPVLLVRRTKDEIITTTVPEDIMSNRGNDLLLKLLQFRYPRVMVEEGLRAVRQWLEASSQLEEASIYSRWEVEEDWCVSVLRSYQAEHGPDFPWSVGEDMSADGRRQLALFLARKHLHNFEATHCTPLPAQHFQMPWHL
# Key:
# S-tag-mABHD16A (mouse) = molecular target: T1, S-tag-mABHD16A (mouse); test: co-IP; HEK293 cells transfected with S-tag-mABHD16A and 3×Flag-mIFITM1/2/3 for 24 h; S-tag-mABHD16A as the bait protein (anti-S-tag antibody, magnetic beads, 4°C, 4 h)
# mABHD16A-VN (mouse) = molecular target: T2, mABHD16A-VN (mouse); test: split reporter; BiFC in living HEK293 cells, 24 h after transfection with mABHD16A-VN + mIFITM1/2/3-VC; Venus signal
# [1] = molecular target: human IFITM1 (hIFITM1), Gal4-binding domain fusion (pGBKT7-hifitm1) (human) (UniProt P13164); test: two-hybrid; AH109 yeast; Gal4 BD-IFITM as bait (pGBKT7), AD-ABHD16A as prey (pGADT7); growth on SD-Ade/-His/-Leu/-Trp and blue colonies with X-alpha-Gal
# [2] = molecular target: human IFITM2 (hIFITM2), Gal4-binding domain fusion (pGBKT7-hifitm2) (human) (UniProt Q01629); test: as above
# [3] = molecular target: human IFITM3 (hIFITM3), Gal4-binding domain fusion (pGBKT7-hifitm3) (human) (UniProt Q01628); test: as above
# 3×Flag-hIFITM1 (human) = 3×Flag-hIFITM1 (human) (UniProt P13164); test: co-IP; HEK293 cells cotransfected with 3×Flag-hIFITM1/2/3 and GFP-hABHD16A; anti-Flag as bait antibody for IP; magnetic beads, 4°C, 4 h
# 3×Flag-hIFITM2 (human) = 3×Flag-hIFITM2 (human) (UniProt Q01629); test: as above
# 3×Flag-hIFITM3 (human) = 3×Flag-hIFITM3 (human) (UniProt Q01628); test: as above
Molecule,binding (S-tag-mABHD16A (mouse)),binding (mABHD16A-VN (mouse)),also measured
3×Flag-mIFITM3 (from UniProt Q9CQW9 1-137),binds,–,–
"human ABHD16A (hABHD16A), Gal4 activation domain fusion (pGADT7-habhd16a) (enzyme, UniProt O95870-1 1-558) MAKLLSCVLGPRLYKIYRERDSERAPASVPETPTAVTAPHSSSWDTYYQPRALEKHADSILALASVFWSISYYSSPFAFFYLYRKGYLSLSKVVPFSHYAGTLLLLLAGVACLRGIGRWTNPQYRQFITILEATHRNQSSENKRQLANYNFDFRSWPVDFHWEEPSSRKESRGGPSRRGVALLRPEPLHRGTADTLLNRVKKLPCQITSYLVAHTLGRRMLYPGSVYLLQKALMPVLLQGQARLVEECNGRRAKLLACDGNEIDTMFVDRRGTAEPQGQKLVICCEGNAGFYEVGCVSTPLEAGYSVLGWNHPGFAGSTGVPFPQNEANAMDVVVQFAIHRLGFQPQDIIIYAWSIGGFTATWAAMSYPDVSAMILDASFDDLVPLALKVMPDSWRGLVTRTVRQHLNLNNAEQLCRYQGPVLLIRRTKDEIITTTVPEDIMSNRGNDLLLKLLQHRYPRVMAEEGLRVVRQWLEASSQLEEASIYSRWEVEEDWCLSVLRSYQAEHGPDFPWSVGEDMSADGRRQLALFLARKHLHNFEATHCTPLPAQNFQMPWHL",–,–,binding [1]: binds; binding [2]: no binding; binding [3]: no binding
"GFP-hABHD16A (enzyme, UniProt O95870-1 1-558) MAKLLSCVLGPRLYKIYRERDSERAPASVPETPTAVTAPHSSSWDTYYQPRALEKHADSILALASVFWSISYYSSPFAFFYLYRKGYLSLSKVVPFSHYAGTLLLLLAGVACLRGIGRWTNPQYRQFITILEATHRNQSSENKRQLANYNFDFRSWPVDFHWEEPSSRKESRGGPSRRGVALLRPEPLHRGTADTLLNRVKKLPCQITSYLVAHTLGRRMLYPGSVYLLQKALMPVLLQGQARLVEECNGRRAKLLACDGNEIDTMFVDRRGTAEPQGQKLVICCEGNAGFYEVGCVSTPLEAGYSVLGWNHPGFAGSTGVPFPQNEANAMDVVVQFAIHRLGFQPQDIIIYAWSIGGFTATWAAMSYPDVSAMILDASFDDLVPLALKVMPDSWRGLVTRTVRQHLNLNNAEQLCRYQGPVLLIRRTKDEIITTTVPEDIMSNRGNDLLLKLLQHRYPRVMAEEGLRVVRQWLEASSQLEEASIYSRWEVEEDWCLSVLRSYQAEHGPDFPWSVGEDMSADGRRQLALFLARKHLHNFEATHCTPLPAQNFQMPWHL",–,–,binding (3×Flag-hIFITM1 (human)): binds; binding (3×Flag-hIFITM2 (human)): no binding; binding (3×Flag-hIFITM3 (human)): no binding
"3×Flag-mIFITM2 (protein, UniProt Q99J93 1-144) MSHNSQAFLSTNAGLPPSYETIKEEYGVTELGEPSNSAVVRTTVINMPREVSVPDHVVWSLFNTLFFNACCLGFVAYAYSVKSRDRKMVGDVVGAQAYASTAKCLNISSLIFSILMVIICIIIFSTTSVVVFQSFAQRTPHSGF",no binding,–,–
"mIFITM2-VC (protein, UniProt Q99J93 1-144) MSHNSQAFLSTNAGLPPSYETIKEEYGVTELGEPSNSAVVRTTVINMPREVSVPDHVVWSLFNTLFFNACCLGFVAYAYSVKSRDRKMVGDVVGAQAYASTAKCLNISSLIFSILMVIICIIIFSTTSVVVFQSFAQRTPHSGF",–,no binding,–
"3×Flag-mIFITM1 (protein, UniProt Q9D103 1-106) MPKEQQEVVVLGSPHISTSATATTINMPEISTPDHVVWSLFNTLFMNFCCLGFVAYAYSVKSRDRKMVGDTTGAQAFASTAKCLNISSLFFTILTAIVVIVVCAIR",no binding,–,–

# Second part, led by results:
binding (S-tag-mABHD16A (mouse)),binding (mABHD16A-VN (mouse)),Molecule,also measured
–,binds,mIFITM3-VC (from UniProt Q9CQW9 1-137),–
–,no binding,"mIFITM1-VC (protein, UniProt Q9D103 1-106) MPKEQQEVVVLGSPHISTSATATTINMPEISTPDHVVWSLFNTLFMNFCCLGFVAYAYSVKSRDRKMVGDTTGAQAFASTAKCLNISSLFFTILTAIVVIVVCAIR",–
